Assay results as given in US20250250314A1 (XILIO DEVELOPMENT, published 2025).
Residue numbers refer to the chain shown, from its start. In names and notes the source's numbering stands.

Columns and labels:
[1] = biological target: PD-1 from the PD-1 effector cells (UniProt Q15116 25-288, limits assumed); assay: cell-based or functional assay
[2] = biological target: T1, Biotinylated recombinant human CD25 (human, UniProt P01589 22-213, limits assumed, biotinylated); assay: SPR, steady-state affinity, reference rhIL-2
T1 construct: also called IL-2Rα
T1 sequence (looked up): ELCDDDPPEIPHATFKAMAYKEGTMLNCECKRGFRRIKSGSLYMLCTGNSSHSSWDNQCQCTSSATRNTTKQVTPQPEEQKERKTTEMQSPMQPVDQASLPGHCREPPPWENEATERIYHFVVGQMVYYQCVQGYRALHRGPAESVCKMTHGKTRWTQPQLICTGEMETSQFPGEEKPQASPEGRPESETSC

[3] = biological target: T1, Biotinylated recombinant human CD25; assay: SPR, Biacore T200, biotinylated CD25 captured on Biotin CAPture chip, steady-state affinity analysis, 25 C
[4] = biological target: T2, Biotinylated recombinant human CD122 (human, UniProt P14784 27-239, biotinylated); assay: SPR, Biacore T200, biotinylated CD122 captured on Biotin CAPture chip, steady-state affinity analysis
T2 sequence (looked up): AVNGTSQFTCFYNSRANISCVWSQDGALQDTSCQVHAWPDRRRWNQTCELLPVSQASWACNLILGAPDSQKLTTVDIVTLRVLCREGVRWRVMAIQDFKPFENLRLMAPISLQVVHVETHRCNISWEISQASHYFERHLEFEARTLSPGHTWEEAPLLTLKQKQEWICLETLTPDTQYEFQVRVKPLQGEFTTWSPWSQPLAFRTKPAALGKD

UniProt Q15116, sequence (Q15116 25-288 limits assumed): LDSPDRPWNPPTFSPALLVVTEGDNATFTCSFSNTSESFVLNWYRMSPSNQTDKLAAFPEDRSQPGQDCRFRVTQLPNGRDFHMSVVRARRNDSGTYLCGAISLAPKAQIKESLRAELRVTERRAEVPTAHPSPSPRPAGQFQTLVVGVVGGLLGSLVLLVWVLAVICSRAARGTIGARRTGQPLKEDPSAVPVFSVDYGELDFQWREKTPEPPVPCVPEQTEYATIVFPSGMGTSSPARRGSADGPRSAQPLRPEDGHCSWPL

B1: UCM9 (other)
heavy 1: QVQLVQSGVEVKKPGASVKVSCKASGYTFTNYYMYWVRQAPGQGLEWMGGINPSNGGTNFNEKFKNRVTLTTDSSTTTAYMELKSLQFDDTAVYYCARRDYRFDMGFDYWGQGTTVTVSSASTKGPSVFPLAPSSKSTSGGTAALGCLVKDYFPEPVTVSWNSGALTSGVHTFPAVLQSSGLYSLSSVVTVPSSSLGTQTYICNVNHKPSNTKVDKKVEPKSCDKTHTCPPCPAPELLGGPSVFLFPPKPKDTLMISRTPEVTCVVVDVSHEDPEVKFNWYVDGVEVHNAKTKPREEQYASTYRVVSVLTVLHQDWLNGKEYKCKVSNKALPAPIEKTISKAKGQPREPQVYTLPPCRDELTKNQVSLWCLVKGFYPSDIAVEWESNGQPENNYKTTPPVLDSDGSFFLYSKLTVDKSRWQQGNVFSCSVMHEALHNRFTQKSLSLSPGGGSSPPGGGSSGGGSGP[left out - about 150 residues]
heavy 2: QVQLVQSGVEVKKPGASVKVSCKASGYTFTNYYMYWVRQAPGQGLEWMGGINPSNGGTNFNEKFKNRVTLTTDSSTTTAYMELKSLQFDDTAVYYCARRDYRFDMGFDYWGQGTTVTVSSASTKGPSVFPLAPSSKSTSGGTAALGCLVKDYFPEPVTVSWNSGALTSGVHTFPAVLQSSGLYSLSSVVTVPSSSLGTQTYICNVNHKPSNTKVDKKVEPKSCDKTHTCPPCPAPELLGGPSVFLFPPKPKDTLMISRTPEVTCVVVDVSHEDPEVKFNWYVDGVEVHNAKTKPREEQYASTYRVVSVLTVLHQDWLNGKEYKCKVSNKALPAPIEKTISKAKGQPREPQVCTLPPSRDELTKNQVSLSCAVKGFYPSDIAVEWESNGQPENNYKTTPPVLDSDGSFFLVSKLTVDKSRWQQGNVFSCSVMHEALHNHYTQKSLSLPLGLGGSSGSGGSGGGSGSGGGEVQLVESGGGLVQPGGSLRLSCAASGSIFSINVMGWYRQAPGKGRELVAAISSGGSTNYADSVKGRFTISRDNAKNTVYLQMNSLKPEDTAVYYCAYASSYYEDETDYWGQGTQVTVSS
light: EIVLTQSPATLSLSPGERATLSCRASKGVSTSGYSYLHWYQQKPGQAPRLLIYLASYLESGVPARFSGSGSGTDFTLTISSLEPEDFAVYYCQHSRDLPLTFGGGTKVEIKRTVAAPSVFIFPPSDEQLKSGTASVVCLLNNFYPREAKVQWKVDNALQSGNSQESVTEQDSKDSTYSLSSTLTLSKADYEKHKVYACEVTHQGLSSPVTKSFNRGEC
[1]
  EC50 (nM), fold induction of luminescence in the PD-1/PD-L1 Blockade Bioassay: 1.76 nM

B2: UCM11 (other)
heavy 1: QVQLVQSGVEVKKPGASVKVSCKASGYTFTNYYMYWVRQAPGQGLEWMGGINPSNGGTNFNEKFKNRVTLTTDSSTTTAYMELKSLQFDDTAVYYCARRDYRFDMGFDYWGQGTTVTVSSASTKGPSVFPLAPSSKSTSGGTAALGCLVKDYFPEPVTVSWNSGALTSGVHTFPAVLQSSGLYSLSSVVTVPSSSLGTQTYICNVNHKPSNTKVDKKVEPKSCDKTHTCPPCPAPELLGGPSVFLFPPKPKDTLMISRTPEVTCVVVDVSHEDPEVKFNWYVDGVEVHNAKTKPREEQYASTYRVVSVLTVLHQDWLNGKEYKCKVSNKALPAPIEKTISKAKGQPREPQVYTLPPCRDELTKNQVSLWCLVKGFYPSDIAVEWESNGQPENNYKTTPPVLDSDGSFFLYSKLTVDKSRWQQGNVFSCSVMHEALHNRFTQKSLSLSPGGGSSPPGGGSSGGGSGP[left out - about 150 residues]
heavy 2: B1 heavy 2 with S445G, L446G, G512Q, A564M, Y569W
light: B1 light
[1]
  EC50 (nM), fold induction of luminescence in the PD-1/PD-L1 Blockade Bioassay: 1.6 nM

B3: Control UCM3 (other)
heavy 1: QVQLVQSGVEVKKPGASVKVSCKASGYTFTNYYMYWVRQAPGQGLEWMGGINPSNGGTNFNEKFKNRVTLTTDSSTTTAYMELKSLQFDDTAVYYCARRDYRFDMGFDYWGQGTTVTVSSASTKGPSVFPLAPSSKSTSGGTAALGCLVKDYFPEPVTVSWNSGALTSGVHTFPAVLQSSGLYSLSSVVTVPSSSLGTQTYICNVNHKPSNTKVDKKVEPKSCDKTHTCPPCPAPELLGGPSVFLFPPKPKDTLMISRTPEVTCVVVDVSHEDPEVKFNWYVDGVEVHNAKTKPREEQYASTYRVVSVLTVLHQDWLNGKEYKCKVSNKALPAPIEKTISKAKGQPREPQVYTLPPCRDELTKNQVSLWCLVKGFYPSDIAVEWESNGQPENNYKTTPPVLDSDGSFFLYSKLTVDKSRWQQGNVFSCSVMHEALHNRFTQKSLSLSPGGGSSPPGGGSSGGGSGPAPTSSSTKKTQLQLEHLLLDLQMILNGINNYKNPKLTAMLTAKFAMPKKATELKHLQCLEEALKPLEEVLNLAQSKNFHLRPRDLISNINVIVLELKGSETTFMCEYADETATIVEFLNRWITFAQSIISTLT
heavy 2: QVQLVQSGVEVKKPGASVKVSCKASGYTFTNYYMYWVRQAPGQGLEWMGGINPSNGGTNFNEKFKNRVTLTTDSSTTTAYMELKSLQFDDTAVYYCARRDYRFDMGFDYWGQGTTVTVSSASTKGPSVFPLAPSSKSTSGGTAALGCLVKDYFPEPVTVSWNSGALTSGVHTFPAVLQSSGLYSLSSVVTVPSSSLGTQTYICNVNHKPSNTKVDKKV[left out - human IgG1 Fc with changes]
light: B1 light
[1]
  EC50 (nM), fold induction of luminescence in the PD-1/PD-L1 Blockade Bioassay: 0.78 nM

B4: UCM12 (other)
heavy 1: QVQLVQSGVEVKKPGASVKVSCKASGYTFTNYYMYWVRQAPGQGLEWMGGINPSNGGTNFNEKFKNRVTLTTDSSTTTAYMELKSLQFDDTAVYYCARRDYRFDMGFDYWGQGTTVTVSSASTKGPSVFPLAPSSKSTSGGTAALGCLVKDYFPEPVTVSWNSGALTSGVHTFPAVLQSSGLYSLSSVVTVPSSSLGTQTYICNVNHKPSNTKVDKKVEPKSCDKTHTCPPCPAPELLGGPSVFLFPPKPKDTLMISRTPEVTCVVVDVSHEDPEVKFNWYVDGVEVHNAKTKPREEQYASTYRVVSVLTVLHQDWLNGKEYKCKVSNKALPAPIEKTISKAKGQPREPQVYTLPPCRDELTKNQVSLWCLVKGFYPSDIAVEWESNGQPENNYKTTPPVLDSDGSFFLYSKLTVDKSRWQQGNVFSCSVMHEALHNRFTQKSLSLSPGGGSSPPGGGSSGGGSGP[left out - about 150 residues]
heavy 2: QVQLVQSGVEVKKPGASVKVSCKASGYTFTNYYMYWVRQAPGQGLEWMGGINPSNGGTNFNEKFKNRVTLTTDSSTTTAYMELKSLQFDDTAVYYCARRDYRFDMGFDYWGQGTTVTVSSASTKGPSVFPLAPSSKSTSGGTAALGCLVKDYFPEPVTVSWNSGALTSGVHTFPAVLQSSGLYSLSSVVTVPSSSLGTQTYICNVNHKPSNTKVDKKVEPKSCDKTHTCPPCPAPELLGGPSVFLFPPKPKDTLMISRTPEVTCVVVDVSHEDPEVKFNWYVDGVEVHNAKTKPREEQYASTYRVVSVLTVLHQDWLNGKEYKCKVSNKALPAPIEKTISKAKGQPREPQVCTLPPSRDELTKNQVSLSCAVKGFYPSDIAVEWESNGQPENNYKTTPPVLDSDGSFFLVSKLTVDKSRWQQGNVFSCSVMHEALHNHYTQKSLGGPLGLGGSSGSGGSGGGSGSGGGEVQLVESGGGLVQPGGSLRLSCAASGSIFSINVMGWYRQAPGKQRELVAAISSGGSTNYADSVKGRFTISRDNAKNTVYLQMNSLKPEDTAVYYCMYASSWYEDETDYWGQGTQVTVSSAAA
light: B1 light
notes: Masked, PD-1-targeted attenuated IL-2 (F42E, C125A); GGPLGL cleavable Fc
[2]
  fold reduced affinity compared to rhIL-2: 236 fold
[3]
  Kd: 2920 nM
[4]
  binding result: no binding (tested: 18.52 to 13,500 nM test article)
